From publication PMC4807272, “Structural Determinants of Oligomerization of the Aquaporin-4 Channel*” (The Journal of Biological Chemistry, 2016)

B1: AQP4 F203A, C-terminal GFP fusion (natural protein, human)
chain: MSDRPTARRWGKCGPLCTRENIMVAFKGVWTQAFWKAVTAEFLAMLIFVLLSLGSTINWGGTEKPLPVDMVLISLCFGLSIATMVQCFGHISGGHINPAVTVAMVCTRKISIAKSVFYIAAQCLGAIIGAGILYLVTPPSVVGGLGVTMVHGNLTAGHGLLVELIITFQLVFTIFASCDSKRTDVTGSIALAIGFSVAIGHLAAINYTGASMNPARSFGPAVIMGNWENHWIYWVGPIIGAVLAGGLYEYVFCPDV[… about 60 residues …]
notes: aquaporin-4 (AQP4), human cDNA in pDEST47; M1 isoform (323 residues); source: HEK293, transiently transfected, in Triton X-100 lysate; not shown: GFP, C-terminal, kept
B2: AQP4 T186A, C-terminal GFP fusion (natural protein, human)
chain: MSDRPTARRWGKCGPLCTRENIMVAFKGVWTQAFWKAVTAEFLAMLIFVLLSLGSTINWGGTEKPLPVDMVLISLCFGLSIATMVQCFGHISGGHINPAVTVAMVCTRKISIAKSVFYIAAQCLGAIIGAGILYLVTPPSVVGGLGVTMVHGNLTAGHGLLVELIITFQLVFTIFASCDSKRTDVAGSIALAIGFSVAIGHLFAINYTGASMNPARSFGPAVIMGNWENHWIYWVGPIIGAVLAGGLYEYVFCPDV[… about 60 residues …]
notes: as for B1
B3: AQP4 loop D1 compound mutant (D179A/S180A/K181A/R182A/T183A), C-terminal GFP fusion (natural protein, human)
chain: MSDRPTARRWGKCGPLCTRENIMVAFKGVWTQAFWKAVTAEFLAMLIFVLLSLGSTINWGGTEKPLPVDMVLISLCFGLSIATMVQCFGHISGGHINPAVTVAMVCTRKISIAKSVFYIAAQCLGAIIGAGILYLVTPPSVVGGLGVTMVHGNLTAGHGLLVELIITFQLVFTIFASCAAAAADVTGSIALAIGFSVAIGHLFAINYTGASMNPARSFGPAVIMGNWENHWIYWVGPIIGAVLAGGLYEYVFCPDV[… about 60 residues …]
notes: aquaporin-4 (AQP4), human cDNA in pDEST47; M1 isoform (323 residues); 179-DSKRT-183 changed to alanines; source: HEK293, transiently transfected, in Triton X-100 lysate; not shown: GFP, C-terminal, kept
B4: AQP4 Q86A, C-terminal GFP fusion (natural protein, human)
chain: MSDRPTARRWGKCGPLCTRENIMVAFKGVWTQAFWKAVTAEFLAMLIFVLLSLGSTINWGGTEKPLPVDMVLISLCFGLSIATMVACFGHISGGHINPAVTVAMVCTRKISIAKSVFYIAAQCLGAIIGAGILYLVTPPSVVGGLGVTMVHGNLTAGHGLLVELIITFQLVFTIFASCDSKRTDVTGSIALAIGFSVAIGHLFAINYTGASMNPARSFGPAVIMGNWENHWIYWVGPIIGAVLAGGLYEYVFCPDV[… about 60 residues …]
notes: as for B1
B5: AQP4 L79A, C-terminal GFP fusion (natural protein, human)
chain: MSDRPTARRWGKCGPLCTRENIMVAFKGVWTQAFWKAVTAEFLAMLIFVLLSLGSTINWGGTEKPLPVDMVLISLCFGASIATMVQCFGHISGGHINPAVTVAMVCTRKISIAKSVFYIAAQCLGAIIGAGILYLVTPPSVVGGLGVTMVHGNLTAGHGLLVELIITFQLVFTIFASCDSKRTDVTGSIALAIGFSVAIGHLFAINYTGASMNPARSFGPAVIMGNWENHWIYWVGPIIGAVLAGGLYEYVFCPDV[… about 60 residues …]
notes: as for B1
B6: AQP4 I47A, C-terminal GFP fusion (natural protein, human)
chain: MSDRPTARRWGKCGPLCTRENIMVAFKGVWTQAFWKAVTAEFLAMLAFVLLSLGSTINWGGTEKPLPVDMVLISLCFGLSIATMVQCFGHISGGHINPAVTVAMVCTRKISIAKSVFYIAAQCLGAIIGAGILYLVTPPSVVGGLGVTMVHGNLTAGHGLLVELIITFQLVFTIFASCDSKRTDVTGSIALAIGFSVAIGHLFAINYTGASMNPARSFGPAVIMGNWENHWIYWVGPIIGAVLAGGLYEYVFCPDV[… about 60 residues …]
notes: as for B1
B7: AQP4 R182A, C-terminal GFP fusion (natural protein, human)
chain: MSDRPTARRWGKCGPLCTRENIMVAFKGVWTQAFWKAVTAEFLAMLIFVLLSLGSTINWGGTEKPLPVDMVLISLCFGLSIATMVQCFGHISGGHINPAVTVAMVCTRKISIAKSVFYIAAQCLGAIIGAGILYLVTPPSVVGGLGVTMVHGNLTAGHGLLVELIITFQLVFTIFASCDSKATDVTGSIALAIGFSVAIGHLFAINYTGASMNPARSFGPAVIMGNWENHWIYWVGPIIGAVLAGGLYEYVFCPDV[… about 60 residues …]
notes: as for B1
B8: AQP4 TM2 compound mutant (L72A/L79A), C-terminal GFP fusion (natural protein, human)
chain: MSDRPTARRWGKCGPLCTRENIMVAFKGVWTQAFWKAVTAEFLAMLIFVLLSLGSTINWGGTEKPLPVDMVAISLCFGASIATMVQCFGHISGGHINPAVTVAMVCTRKISIAKSVFYIAAQCLGAIIGAGILYLVTPPSVVGGLGVTMVHGNLTAGHGLLVELIITFQLVFTIFASCDSKRTDVTGSIALAIGFSVAIGHLFAINYTGASMNPARSFGPAVIMGNWENHWIYWVGPIIGAVLAGGLYEYVFCPDV[… about 60 residues …]
notes: as for B1
B9: AQP4 I199A, C-terminal GFP fusion (natural protein, human)
chain: MSDRPTARRWGKCGPLCTRENIMVAFKGVWTQAFWKAVTAEFLAMLIFVLLSLGSTINWGGTEKPLPVDMVLISLCFGLSIATMVQCFGHISGGHINPAVTVAMVCTRKISIAKSVFYIAAQCLGAIIGAGILYLVTPPSVVGGLGVTMVHGNLTAGHGLLVELIITFQLVFTIFASCDSKRTDVTGSIALAIGFSVAAGHLFAINYTGASMNPARSFGPAVIMGNWENHWIYWVGPIIGAVLAGGLYEYVFCPDV[… about 60 residues …]
notes: as for B1
B10: AQP4 V185A, C-terminal GFP fusion (natural protein, human)
chain: MSDRPTARRWGKCGPLCTRENIMVAFKGVWTQAFWKAVTAEFLAMLIFVLLSLGSTINWGGTEKPLPVDMVLISLCFGLSIATMVQCFGHISGGHINPAVTVAMVCTRKISIAKSVFYIAAQCLGAIIGAGILYLVTPPSVVGGLGVTMVHGNLTAGHGLLVELIITFQLVFTIFASCDSKRTDATGSIALAIGFSVAIGHLFAINYTGASMNPARSFGPAVIMGNWENHWIYWVGPIIGAVLAGGLYEYVFCPDV[… about 60 residues …]
notes: as for B1
B11: AQP4 D179A, C-terminal GFP fusion (natural protein, human)
chain: MSDRPTARRWGKCGPLCTRENIMVAFKGVWTQAFWKAVTAEFLAMLIFVLLSLGSTINWGGTEKPLPVDMVLISLCFGLSIATMVQCFGHISGGHINPAVTVAMVCTRKISIAKSVFYIAAQCLGAIIGAGILYLVTPPSVVGGLGVTMVHGNLTAGHGLLVELIITFQLVFTIFASCASKRTDVTGSIALAIGFSVAIGHLFAINYTGASMNPARSFGPAVIMGNWENHWIYWVGPIIGAVLAGGLYEYVFCPDV[… about 60 residues …]
notes: as for B1
B12: AQP4 D184A, C-terminal GFP fusion (natural protein, human)
chain: MSDRPTARRWGKCGPLCTRENIMVAFKGVWTQAFWKAVTAEFLAMLIFVLLSLGSTINWGGTEKPLPVDMVLISLCFGLSIATMVQCFGHISGGHINPAVTVAMVCTRKISIAKSVFYIAAQCLGAIIGAGILYLVTPPSVVGGLGVTMVHGNLTAGHGLLVELIITFQLVFTIFASCDSKRTAVTGSIALAIGFSVAIGHLFAINYTGASMNPARSFGPAVIMGNWENHWIYWVGPIIGAVLAGGLYEYVFCPDV[… about 60 residues …]
notes: as for B1
B13: AQP4 G187A, C-terminal GFP fusion (natural protein, human)
chain: MSDRPTARRWGKCGPLCTRENIMVAFKGVWTQAFWKAVTAEFLAMLIFVLLSLGSTINWGGTEKPLPVDMVLISLCFGLSIATMVQCFGHISGGHINPAVTVAMVCTRKISIAKSVFYIAAQCLGAIIGAGILYLVTPPSVVGGLGVTMVHGNLTAGHGLLVELIITFQLVFTIFASCDSKRTDVTASIALAIGFSVAIGHLFAINYTGASMNPARSFGPAVIMGNWENHWIYWVGPIIGAVLAGGLYEYVFCPDV[… about 60 residues …]
notes: as for B1
B14: AQP4 S180A, C-terminal GFP fusion (natural protein, human)
chain: MSDRPTARRWGKCGPLCTRENIMVAFKGVWTQAFWKAVTAEFLAMLIFVLLSLGSTINWGGTEKPLPVDMVLISLCFGLSIATMVQCFGHISGGHINPAVTVAMVCTRKISIAKSVFYIAAQCLGAIIGAGILYLVTPPSVVGGLGVTMVHGNLTAGHGLLVELIITFQLVFTIFASCDAKRTDVTGSIALAIGFSVAIGHLFAINYTGASMNPARSFGPAVIMGNWENHWIYWVGPIIGAVLAGGLYEYVFCPDV[… about 60 residues …]
notes: as for B1
B15: AQP4 I57A, C-terminal GFP fusion (natural protein, human)
chain: MSDRPTARRWGKCGPLCTRENIMVAFKGVWTQAFWKAVTAEFLAMLIFVLLSLGSTANWGGTEKPLPVDMVLISLCFGLSIATMVQCFGHISGGHINPAVTVAMVCTRKISIAKSVFYIAAQCLGAIIGAGILYLVTPPSVVGGLGVTMVHGNLTAGHGLLVELIITFQLVFTIFASCDSKRTDVTGSIALAIGFSVAIGHLFAINYTGASMNPARSFGPAVIMGNWENHWIYWVGPIIGAVLAGGLYEYVFCPDV[… about 60 residues …]
notes: as for B1
B16: AQP4 S180D (phosphomimetic), C-terminal GFP fusion (natural protein, human)
chain: MSDRPTARRWGKCGPLCTRENIMVAFKGVWTQAFWKAVTAEFLAMLIFVLLSLGSTINWGGTEKPLPVDMVLISLCFGLSIATMVQCFGHISGGHINPAVTVAMVCTRKISIAKSVFYIAAQCLGAIIGAGILYLVTPPSVVGGLGVTMVHGNLTAGHGLLVELIITFQLVFTIFASCDDKRTDVTGSIALAIGFSVAIGHLFAINYTGASMNPARSFGPAVIMGNWENHWIYWVGPIIGAVLAGGLYEYVFCPDV[… about 60 residues …]
notes: as for B1

Target: the molecule itself
Assay: native gel or EMSA; BN-PAGE (8% bis-tris gel, pH 7.0, on ice) of whole-cell lysates of transfected HEK293 cells in 1% Triton X-100 BN lysis buffer, then immunoblot (anti-AQP4 or anti-GFP) and densitometry; self-association: tetramer, dimer, monomer bands

Stoichiometry N, 4:
B1
B2
B4
B5
B6
B7
B8
B9
B10
B12
B13
B14
B15
B16

Percent of the protein as dimers, 27%:
B3

Percent of the protein as dimers, 5%:
B11
